Laboratory results from the CheMixHub viscosity set.
This continues a long series; more values of the same kind are listed elsewhere.

Experiment: xn = mol fraction of the nth substance listed

COCCO + O
viscosity [mPa·s]
Conditions	293.15 K	303.15 K	308.15 K	313.15 K	323.15 K
101 kPa, x1 = 0.01004	1.14	0.894	–	0.727	0.596
101 kPa, x1 = 0.03021	1.45	1.1	–	0.878	0.707
101 kPa, x1 = 0.05009	1.74	1.29	–	1.018	0.811
101 kPa, x1 = 0.09213	2.35	1.71	–	1.3	1.02
101 kPa, x1 = 0.1367	2.85	2.05	–	1.55	1.16
101 kPa, x1 = 0.1909	3.32	2.35	–	1.76	1.3
101 kPa, x1 = 0.2619	3.5	2.51	–	1.91	1.4
101 kPa, x1 = 0.3559	3.54	2.53	–	1.92	1.44
101 kPa, x1 = 0.4857	3.18	2.34	–	1.8	1.37
101 kPa, x1 = 0.5709	2.92	2.18	–	1.69	1.31
101 kPa, x1 = 0.679	2.59	1.96	–	1.55	–
101 kPa, x1 = 0.7516	2.39	–	–	1.45	1.17
101 kPa, x1 = 0.8458	2.16	1.64	–	1.34	1.09
101 kPa, x1 = 0.9167	1.98	1.53	–	1.26	1.03
101.33 kPa, x1 = 0.4974	–	–	2.14	–	–
101.33 kPa, x1 = 0.5691	–	–	2.01	–	–
101.33 kPa, x1 = 0.6414	–	–	1.878	–	–
101.33 kPa, x1 = 0.6928	–	–	1.787	–	–
101.33 kPa, x1 = 0.7288	–	–	1.724	–	–
101.33 kPa, x1 = 0.768	–	–	1.658	–	–
101.33 kPa, x1 = 0.9214	–	–	1.423	–	–

COCCO + CCCO
298.15 K, 101.33 kPa
Conditions	viscosity [mPa·s]
x1 = 0.0767	1.821
x1 = 0.0973	1.792
x1 = 0.1162	1.767
x1 = 0.1639	1.713
x1 = 0.2144	1.666
x1 = 0.2667	1.624
x1 = 0.3227	1.589
x1 = 0.3699	1.567
x1 = 0.4118	1.548
x1 = 0.4575	1.532
x1 = 0.4938	1.521
x1 = 0.5359	1.51
x1 = 0.5856	1.503
x1 = 0.6298	1.497
x1 = 0.6793	1.494
x1 = 0.7347	1.493
x1 = 0.7779	1.494
x1 = 0.8231	1.497
x1 = 0.8729	1.502
x1 = 0.9153	1.507
x1 = 0.9597	1.52
x2 = 0.0192	1.525
